Data published in PubChem BioAssay AID1345083 (National Center for Advancing Translational Sciences (NCATS), 2018).
The campaign covered roughly 94,000 compounds. About 6,200 (6.6%) were called active. The shares of active, inactive and inconclusive entries below differ from those in the screen. Calls follow the shape of the dose curve; as a rule, active = well fitted inhibition curve with a large enough effect; inconclusive = small, poorly fitted or top-dose-only effect; inactive = flat fitted curve, though single readings scatter. Where the call is inconclusive, the potency comes from a doubtful curve fit.

test: Cytotoxic Profiling in HEK 293 Cell Line of Diverse Libraries Using Quantitative High-Throughput Screening; conditions: HEK 293 viability, ATP luminescence (CellTiter-Glo), 48-72 h; series mostly up to 115 µM; also: nearly all actives have a fitted effect of over 60% in size
Outline: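 250 HEK 293 cells/well; compound by pintool; incubated 48 or 72 hr at 37 degree Celsius; CellTiter-Glo added, 10 min RT, luminescence imaged.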
Potency is read from the fitted curve at half-maximal effect; tags tell the direction and shape of the fitted curve.

| SMILES | Potency |
| --- | --- |
| CN(C)[C@@H]1[C@@H](NC(=O)CCn2cnc3ccccc3c2=O)[C@H]2CCO[C@H]21 | inactive |
| CC(C)C(=O)N1CCCC2(Cc3ccccc3CN2[S+](=O)([O-])c2ccccc2)C1 (stereo not given) | inactive |
| O=S(=O)(c1ccccc1F)N1CC(c2nc(Cc3ccccc3)no2)C1 | inconclusive: 89.1 µM [inhibitor, single point] |
| Cc1ccc(CCNC(=O)c2nnn3cc(C)[nH]c(=O)c23)cc1 | inconclusive: 79.4 µM [inhibitor, single point] |
| Cc1noc([C@@H]2CN(CC3CC3)C[C@H]2CO)n1 | inconclusive: 28.2 µM [inhibitor, single point] |
| COc1cccc(-c2cn3cc(C(=O)NCc4cccc(Cl)c4)nc3s2)c1 | inconclusive: 50.1 µM [inhibitor, partial curve, poor fit] |
| O=C(Nc1ccc(Cl)cc1)c1nc2c(o1)CCN(Cc1cccc(O)c1)CC2 | active: 31.6 µM |
| COc1ccccc1-c1[nH]nc2ncc(-c3cnn(C)c3)nc12 | active: 35.5 µM |
| CC(C)C[C@@H]1N[C@H](C(=O)NC(C)C)Cc2cn(Cc3nccn3C)c3cccc1c23 | inconclusive: 44.7 µM [inhibitor, full curve, poor fit] |
| O=C1Cc2c(-c3cccc4ccccc34)n[nH]c2CN1Cc1ccccc1 | inconclusive: 56.2 µM [inhibitor, partial curve, poor fit] |
| CCOCCOC1CCN(C(=O)c2ccc3cc[nH]c3c2)CC1 | inactive |
| COc1ccc(CCNC(=O)c2cc3c(N4CCCC4)nc(C)cn3n2)cc1OC | inconclusive: 79.4 µM [inhibitor, single point] |
| Cn1c(CNC(=O)C2CCN(c3cn[nH]c(=O)c3)C2)nc2ccccc21 (stereo not given) | inconclusive: 79.4 µM [inhibitor, single point] |
| Cc1nn(-c2ccccc2)c2c1C(C(C)C)N(C1CCCN(C(=O)c3ccccc3Cl)C1)C2=O (stereo not given) | inconclusive: 17.8 µM [inhibitor, full curve, poor fit] |
| C=CCOCC(O)CN1CCC(=O)N(Cc2ccco2)Cc2c1ccc(OC)c2OCC=C (stereo not given) | inconclusive: 50.1 µM [inhibitor, partial curve, poor fit] |
| O=C1CC(c2ccccc2)N(C(=O)CNS(=O)(=O)c2cccs2)CCCCCN1 (stereo not given) | inconclusive: 56.2 µM [inhibitor, partial curve, poor fit] |
| Cc1cn2nc(C(=O)Nc3ccc(F)cc3)cc2c(N(C)Cc2ccccc2)n1 | inconclusive: 28.2 µM [inhibitor, full curve, poor fit] |
| COc1ccc(C2Cn3nnc(C(=O)NCc4cc(OC)ccc4OC)c3CO2)cc1 (stereo not given) | inconclusive: 22.4 µM [inhibitor, full curve] |
| Cc1c(-c2ccccc2F)[nH]c2ccc(CNC(=O)Cn3ccc(=O)[nH]c3=O)cc12 | active: 44.7 µM |
| COc1ccc(CNC(=O)c2c(C)noc2-c2ccccc2C)cc1 | inconclusive: 56.2 µM [inhibitor, partial curve, poor fit] |

| SMILES | Potency |
| --- | --- |
| CN1C[C@H]2CN(Cc3c[nH]c4ccccc34)CCN2C1=O | inactive |
| CC1=C[C@@H](CNC(=O)c2ccc(F)cc2)[C@H](C(C)C)C[C@H]1Cc1nnc(-c2ccncc2)o1 | active: 35.5 µM |
| CCOc1ccc(C(=O)NC2CCN(c3cc(-c4ccccc4)[nH]n3)CC2)cc1OCC | inconclusive: 79.4 µM [inhibitor, single point] |
| Cc1nn(-c2ccccc2)c2c1C(C(C)C)N(C1CCN([S+](=O)([O-])c3c(C)noc3C)C1)C2=O (stereo not given) | inconclusive: 25.1 µM [inhibitor, full curve, poor fit] |
| c1ccc(-c2nnc([C@H]3CCN(C4CCC4)C3)o2)cc1 | inconclusive: 126 µM [inhibitor, partial curve] |
| O=C(NC1CCCN(Cc2ccc(-c3cncnc3)cc2)C1)c1ccccc1Cl (stereo not given) | inconclusive: 79.4 µM [inhibitor, partial curve, poor fit] |
| CN(CC(=O)N1CCC(CCOc2ccc(F)cc2)C1)S(=O)(=O)c1ccc2c(c1)oc(=O)n2C (stereo not given) | active: 35.5 µM |
| Cc1nn(-c2ccccc2)c2c1C(C(C)C)N(C1CN([S+](=O)([O-])c3ccccc3)C1)C2=O (stereo not given) | inconclusive: 89.1 µM [inhibitor, single point] |
| Cc1c(-c2ccc(F)cc2)[nH]c2ccc(CNC(=O)c3n[nH]c4c3CCCC4)cc12 | inconclusive: 10 µM [inhibitor, full curve, poor fit] |
| O=C(Nc1ccc(F)cc1)C1CCN(c2ccnc3ccnn23)CC1 | inconclusive: 17.8 µM [inhibitor, full curve, poor fit] |
| COC(=O)[C@@H]1Cc2c([nH]c3ccccc23)[C@H]2C[C@H](NCCNC(C)=O)C[C@@H](c3ccc(C(F)(F)F)cc3)N21 | active: 20 µM |
| Cc1csc(NC(=O)[C@@H]2CCC[C@@H](NCc3cccnc3)CN(C)C(=O)C2)n1 | inactive |
| O=C(C1CCC1)N1CCCC(c2nc(C3CCOCC3)no2)C1 (stereo not given) | inactive |
| COc1ccc2nc([C@H]3CCN(C(=O)COCC(=O)O)C3)[nH]c2c1 | inactive |
| CC(=O)N1CCc2[nH]cnc2C12CCN(C(=O)c1ccc(C)c(C)c1)CC2 | inactive |
| Cn1ccc2ccc(C(=O)N3CCN(CCOc4ccccc4)CC3)cc21 | inconclusive: 79.4 µM [inhibitor, partial curve, poor fit] |
| O=C(NCCc1c[nH]c2ccccc12)[C@@H]1C[C@H]2C(=O)NCCCCCCN(C(=O)C3CC3)[C@H]2C1 | inconclusive: 28.2 µM [inhibitor, full curve, poor fit] |
| O=C(c1ccccc1)N1CCC2(CC1)N=C(c1ccc(Br)cc1)NO2 | inconclusive: 44.7 µM [inhibitor, partial curve, poor fit] |
| COc1ccccc1-c1cc2c(ccn2C)c(C(=O)NCC2CCN(C)C(=O)C2)n1 (stereo not given) | inactive |
| O=C(c1ccccc1)N1CCC(n2cc(-c3nc(C4CC4)no3)nn2)C1 (stereo not given) | inconclusive: 56.2 µM [inhibitor, partial curve, poor fit] |
